Data published in PMC4336329 (PLoS ONE, 2015).
The whole screen tested about 310,000 compounds, of which about 14,000 (4.5%) showed an effect of 50% or more. Effects have a minus sign here. This is one part of the list.

What follows are molecules tested against human ether-à-go-go-related gene (hERG) potassium channel (human, UniProt Q12809) (assay: primary screen, population patch clamp on CHO cells stably expressing hERG).
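Further: peak tail current of the secondary pulse compared with the same well before compound.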

human ether-à-go-go-related gene (hERG) potassium channel, sequence (Q12809 whole entry, looked up): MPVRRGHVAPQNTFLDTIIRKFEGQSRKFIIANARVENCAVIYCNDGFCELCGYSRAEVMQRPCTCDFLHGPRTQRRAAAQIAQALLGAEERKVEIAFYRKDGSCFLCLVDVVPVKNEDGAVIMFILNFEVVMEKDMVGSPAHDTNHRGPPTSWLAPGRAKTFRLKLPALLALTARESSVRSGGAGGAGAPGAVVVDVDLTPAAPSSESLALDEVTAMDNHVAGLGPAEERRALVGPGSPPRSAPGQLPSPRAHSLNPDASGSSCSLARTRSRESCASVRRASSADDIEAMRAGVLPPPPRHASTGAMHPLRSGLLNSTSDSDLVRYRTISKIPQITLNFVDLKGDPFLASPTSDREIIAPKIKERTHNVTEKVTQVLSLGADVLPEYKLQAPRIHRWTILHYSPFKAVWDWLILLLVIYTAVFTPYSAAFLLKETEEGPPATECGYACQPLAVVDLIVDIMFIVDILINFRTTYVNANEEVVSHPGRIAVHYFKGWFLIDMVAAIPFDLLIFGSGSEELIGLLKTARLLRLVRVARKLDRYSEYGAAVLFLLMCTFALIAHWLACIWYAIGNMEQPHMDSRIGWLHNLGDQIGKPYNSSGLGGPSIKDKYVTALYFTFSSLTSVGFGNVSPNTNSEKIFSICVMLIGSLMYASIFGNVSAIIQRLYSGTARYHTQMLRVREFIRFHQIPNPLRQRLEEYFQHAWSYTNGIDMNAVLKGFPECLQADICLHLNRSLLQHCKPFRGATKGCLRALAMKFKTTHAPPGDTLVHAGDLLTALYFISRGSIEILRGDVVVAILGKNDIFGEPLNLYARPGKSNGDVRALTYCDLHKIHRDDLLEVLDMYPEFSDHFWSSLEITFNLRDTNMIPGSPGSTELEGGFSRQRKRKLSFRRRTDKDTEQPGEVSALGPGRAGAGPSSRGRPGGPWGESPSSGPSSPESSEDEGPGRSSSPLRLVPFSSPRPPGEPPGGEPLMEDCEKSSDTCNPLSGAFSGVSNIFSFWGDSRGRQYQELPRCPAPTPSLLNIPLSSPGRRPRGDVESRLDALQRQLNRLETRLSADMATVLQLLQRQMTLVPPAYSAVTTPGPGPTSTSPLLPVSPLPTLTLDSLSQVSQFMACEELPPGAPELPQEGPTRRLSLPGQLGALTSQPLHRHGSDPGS

Structure (SMILES)	hERG current change (%, negative = inhibition) at 10uM [%]
Cc1ccccc1C(=O)NN1C(=O)CSC1=S	15.4
Cc1ccc(OCC(=O)Nn2c(C)nc3ccccc3c2=O)c(C(C)C)c1	-34.7
N#CCC(=O)N1CCN(C(c2ccccc2)c2ccccc2)CC1	2.43
CNc1nc(Oc2ccccc2C(=O)OC)nc(SC)n1	-4.99
CCOc1ccc(S(=O)(=O)N2CCN(CC(O)COc3cccc([N+](=O)[O-])c3)CC2)cc1 (stereo not shown)	-65.5
COC(=O)c1cc(NS(=O)(=O)c2ccc3c(c2)CCC(=O)N3)cc(C(=O)OC)c1	14.5
COc1ccc(NC(=O)CSc2nnc3ccc(-c4ccccn4)nn23)cc1	10.9
Cn1c(=O)c2c(nc(CN3CCN(c4cccc(Cl)c4)CC3)n2CCc2ccccc2)n(C)c1=O	-20.1
NS(=O)(=O)c1ccc(CCNC(=O)c2ccc3ccccc3n2)cc1	-10.7
CC(=O)N1CCc2c(sc(NC(=O)C3CCCN3S(=O)(=O)c3cccs3)c2C#N)C1 (stereo not shown)	-0.991
COC(=O)C1=C(O)/C(=C\c2ccc(O)c(OC)c2)N=C1C	3.78
O=C(NCc1ccccn1)C1CCC(=O)N1C1CCCC1 (stereo not shown)	1.93
CC(C)(C)C(=O)N1CCN(c2nc3ccc(Cl)cc3s2)CC1	-12.2
CC12CCC(C(=O)Nc3ccccc3Cl)(C(Br)C1=O)C2(C)C (stereo not shown)	-1.31
CC1(C)C(=O)CC[C@]2(C)C3C(=O)C=C4[C@H]5C[C@@](C)(C(=O)O)CC[C@]5(C)CC[C@]4(C)[C@]3(C)CC[C@@H]12 (stereo partly shown)	3.34
CCCCc1ccc(-n2nnnc2SCC(=O)Nc2cc(OC)c([N+](=O)[O-])cc2C)cc1	15.3
CC[C@H]1CN(C)C[C@@]2(C(=O)OC)Cc3c([nH]c4ccccc34)C(=O)C[C@@H]12	9.71
CCOc1ccccc1N1CSC2=C(C#N)C(c3c(OC)ccc4ccccc34)CC(=O)N2C1 (stereo not shown)	10.2
CCc1ccc(NS(=O)(=O)c2c(C(=O)N3CCOCC3)c(C)n(C)c2C)cc1	-22.6
Cc1ccc(S(=O)(=O)c2cn(C)c3cc(N4CCOCC4)c(F)cc3c2=O)cc1	5.26
COc1ccc([N+](=O)[O-])cc1NC(=O)c1ccc(N(Cc2ccccc2C)S(C)(=O)=O)cc1	-10.8
O=C(CN1CCN(Cc2ccccc2)CC1)Nc1ccc(Cl)cn1	-74.5

Structure (SMILES)	hERG current change (%, negative = inhibition) at 10uM [%]
O=C(Cc1cccs1)Nc1ccccn1	23.1
COc1ccccc1/C=C/C(=O)NCC(=O)N/N=C(\CCC(=O)O)c1ccccc1	6
Cc1ccc(C(=O)OCC(=O)N2CC(C)CC(C)C2)cc1S(=O)(=O)N1CCOCC1 (stereo not shown)	-14.5
CC(C)(C)c1ccc(/C=C2\SC(=O)N=C2N)cc1	24.4
Cc1ccc2nc3ccc(N4CCCC4)nn3c(=O)c2c1	-8.29
O=S(=O)(c1ccc2oc3ccccc3c2c1)N1CCOCC1	-17.7
Cc1cccnc1CN1CCN(Cc2nc(C(c3ccccc3)c3ccccc3)no2)CC1	-56.2
CCOc1ccc2nc(NC(=O)C3CCCN(S(=O)(=O)c4cccs4)C3)sc2c1 (stereo not shown)	-4.06
COC(=O)c1ccc(C(c2c(N)n(CC(C)C)c(=O)[nH]c2=O)N2CCN(c3ccccc3)CC2)cc1 (stereo not shown)	-8.97
O=C(N/N=C/C=C\c1ccccc1[N+](=O)[O-])c1ccncc1	-1.32
CCc1nnc(NC(=O)CCC(=O)N2CCN(Cc3ccc(Cl)cc3)CC2)s1	-14.6
COc1ccc(OCC(=O)Nc2ccc3oc(-c4ccncc4)nc3c2)cc1	-10.6
O=C(Nc1ccccc1-c1nc2ccccc2s1)c1ccco1	-1.74
COc1cc(C2C(C(=O)c3ccco3)=C(O)C(=O)N2Cc2cccnc2)cc(OC)c1OC (stereo not shown)	17.7
COc1cccc(C(=O)Nc2nnc(S(=O)(=O)Nc3cccc(C)c3)s2)c1	-1.2
Cc1cc(NC(=O)COC(=O)CCC(=O)c2ccc(F)cc2)no1	0.704
COc1ccccc1NC(=O)c1ccc(-n2cccn2)c([N+](=O)[O-])c1	-14.8
O=C(CSc1nc2c(c(C(F)(F)F)n1)CCc1ccccc1-2)NCc1ccco1	2.99
CC(C)(C)CC(=O)Nc1ccc(C(N)=O)cc1	-2.38
COCCNC(=S)N1CCc2cc(OC)c(OC)cc2C1COc1ccc(C(C)C)cc1 (stereo not shown)	16.7
CCn1c2ccccc2n2c(=O)c(=O)n(CC(=O)N3CCN(c4ccccc4OC)CC3)nc12	4.96
COc1ccc(C2/C=C\CN(C(=O)CC(C)(C)C)CC(=O)N2Cc2ccc(F)cc2)cc1 (stereo not shown)	-13.6

Structure (SMILES)	hERG current change (%, negative = inhibition) at 10uM [%]
Cc1cccc(N(CC(=O)NCc2ccccc2)C(=O)CCC(=O)Nc2nccs2)c1	5.32
COc1cc(/C=N/O)ccc1OCc1ccc(C(=O)O)cc1	-1.94
Brc1ccc(CN2CCN(c3ccccc3)CC2)o1	13.8
C/C(=N\OC(=O)c1ccc(Cl)c(Cl)c1)c1sc(C)nc1C	-10.7
COc1ccc(Cl)cc1S(=O)(=O)N1CCC(C(=O)NCc2ccco2)CC1	-14.2
Cc1cccc(N(C(=O)CNC(=O)c2ccco2)C(C(=O)NC2CCCC2)c2ccncc2)c1C (stereo not shown)	3.64
Cc1nc2c(C)cccn2c1/C(O)=C1\C(=O)C(=O)N(CCN(C)C)C1c1ccco1 (stereo not shown)	14
CC(=O)c1ccc(NC(=S)N2CCC(Cc3ccccc3)CC2)cc1	4.22
Cc1ccc2c(c1)nnn2C1CCN(CC(=O)NCCc2nc3ccccc3[nH]2)CC1	-27.9
COc1ccccc1C(=O)N/C(=C\c1ccc(Br)cc1)C(=O)N1CCCC1	-48.6
Cc1ccc(S(=O)(=O)Nc2nc(C)c(C(=O)NNS(=O)(=O)c3ccccc3)s2)cc1	7.31
CN(CC(=O)Nc1ccc(F)c(F)c1)S(=O)(=O)c1cccc2nsnc12	-26.1
COc1ccccc1N1CCN(C(=O)CCC(=O)N2CCN(c3ccccc3OC)CC2)CC1	8.6
CCOc1c(CNc2nnnn2C)cccc1OC	15.2
COc1cccc2cc(C(N)=O)/c(=N\NC(=O)c3ccccc3)oc12	6.15
C=CCN(CC#CCOc1ccccc1OC)CC=C.O=C(O)C(=O)O	2.08
COc1ccc(OCC(=O)N/N=C(\C)c2cccs2)cc1	9.45
NC(=O)NC(CC(=O)NCc1ccc2c(c1)OCO2)c1ccccc1Cl (stereo not shown)	16.7
Cc1ccc(C)c(NC(=O)c2ccc(OCc3c(C)noc3C)cc2)c1	-0.266
CCCCC(=O)Nc1ccccc1C#N	4.77
COc1ccc(Nc2nc(NCC3CCCO3)nc(N)c2[N+](=O)[O-])cc1 (stereo not shown)	-8.31
Cc1nn(-c2ccccc2)c(C)c1/C=N/NC(=O)CSc1nc2ccccc2c(=O)n1-c1ccccc1	6.86

Structure (SMILES)	hERG current change (%, negative = inhibition) at 10uM [%]
Cc1ccc(-c2nn(-c3ccccc3)cc2/C=N/NC(=O)c2ccncc2)o1	1.47
CC1(C)Cc2c(sc3nc(SCC(=O)NCc4ccccc4)n(-c4ccccc4)c(=O)c23)CS1	7.62
CC(Oc1ccc(Cl)cc1)C(=O)N/N=C/c1ccsc1 (stereo not shown)	4.59
O=C(/C=C/c1ccccc1)Nc1nc(-c2ccncc2)cs1	3.68
CCc1ccc(NC(=O)Cc2ccc(OC)cc2)cc1	0.00588
CCCC12C(=O)C(C)(C(c3ccccc3)=C1c1ccccc1)C1C(=O)N(c3ccc(C)cc3)C(=O)C12 (stereo not shown)	4.22
Cc1cccc(NC(=O)CSc2ccc(-c3ccco3)nn2)c1	-59.5
Cc1nnsc1C(=O)NNC(=O)Nc1ccccc1	12.3
O=C(OC1CCOC1=O)c1ccc(CO)cc1 (stereo not shown)	27.4
CCOc1ccc(C(=O)Nc2ncccc2Cl)cc1.Cl	7.67
CCOc1ccc(CN(C(=O)c2cccs2)C2CCS(=O)(=O)C2)cc1 (stereo not shown)	-13.6
CSc1ccccc1C(=O)N1CCCCC1	-9.98
O=C(Nc1ccc(N2CCCC2)cc1)c1cccc(-c2cc3ccccc3oc2=O)c1	17.8
COc1ccc(-c2c(C(C)=O)c(C)nc3sc4c(=N)n(N)cnc4c23)cc1	3.48
COc1cc(/C=N/NC(=O)CNS(=O)(=O)c2ccc(C)cc2)cc(OC)c1OC	12.1
Cc1c(Cl)c([N+](=O)[O-])nn1CC(=O)NC(C)c1ccccc1 (stereo not shown)	9.4
CN(C)c1nc(Cl)nc(NCCOc2ccccc2)n1	9.52
O=C(O)C(=O)O.OC(CNC1CCCCCCC1)c1ccccc1 (stereo not shown)	2.95
CCOc1ccc(CCNC(=O)C2CCN(c3nn4c(=O)cc(C)nc4s3)CC2)cc1	-23.3
